According to the supplement of paper PMC10126150:
Sequences with one replicate were seen in a single cluster, so their values are uncertain.

System: ATP
Test: switch fluorescence ratio, 500 uM ATP over buffer (Cy3 cluster intensity, sum of 5 cycles each) (fold (ratio)); higher = stronger signal-on switching upon ATP binding; sequences stand for … in TCGTCGGCAGCGTCAGATGTGTATAAGAGACAGTTTTTTTTTTTTTTTTTTTTTTTTT…TC
Conditions: aptamer strand: ATP DNA aptamer (quencher-CACCTGGGGGAGTATTGCGGAGGAAGG + anchor), 100 nM annealed; ATP concentration: 500 uM; one replicate
Method in brief: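 Clusters with intensities outside 100-1000 RFU were excluded. The remaining Cy3-labelled switching-strand clusters on a modified Illumina MiSeq flow-cell had been annealed to 100 nM quencher-labelled ATP aptamer and imaged in selection buffer, then after 15 min with 500 uM ATP at 22 °C, for five cycles separated by NaOH stripping and re-annealing. The fluorescence ratio, averaged per switch-domain sequence, is each cluster's summed target-cycle Cy3 intensity over its summed buffer-cycle Cy3 intensity.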
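Further: ATP exposure 15 min at 22 °C before imaging.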

| Sequence | switch fluorescence ratio |
| --- | --- |
| CTGCTTTTCA | 1.03 |
| CTTCGATGAT | 0.982 |
| GAGCCATCAA | 0.991 |
| GGCATAAAGC | 1.01 |
| AAGAACCCAT | 1.04 |
| TACGAATGTG | 0.936 |
| CTCGAGAAGG | 1 |
| GGTATGGTAA | 0.993 |
| GGGGAGCTAG | 0.942 |
| GCGTCCGGTG | 1.05 |
| CGGGACGTTC | 1 |
| GTCAGATTTT | 1.01 |
| TGAGTTAG | 1.01 |
| CACTGCTGGG | 0.991 |
| AGGAAGTGCG | 0.967 |
| TATTTCACGA | 1.3 |
| AATTAGGCTT | 0.989 |
| TGGTCGTTT | 0.979 |
| CATACCATTG | 0.992 |
| AAGCCTTGCA | 1.04 |
| GAAGTATTAA | 0.971 |
| AAATAGTGTA | 1.02 |
| AGAGTGGTT | 0.976 |
| CGGGTTAGGG | 0.953 |
| GATGCTTGAT | 1.08 |
| CCAGGAGCCT | 1.08 |
| GTGAAGGTTT | 0.995 |
| CTTTTGAAAA | 0.969 |
| TGGATTTCTT | 1.07 |
